These results are taken from the supplement of paper PMC10126150.

Values marked as one replicate rest on one cluster of the flow cell; about a third of the high ones do not repeat.

In this series the test system is ATP. Put plainly: switch fluorescence ratio, 500 uM ATP over buffer (Cy3 cluster intensity, sum of 5 cycles each) (fold (ratio)); higher = stronger signal-on switching upon ATP binding; sequences stand for … in TCGTCGGCAGCGTCAGATGTGTATAAGAGACAGTTTTTTTTTTTTTTTTTTTTTTTTT…TC. The conditions noted are these: aptamer strand: ATP DNA aptamer (quencher-CACCTGGGGGAGTATTGCGGAGGAAGG + anchor), 100 nM annealed; ATP concentration: 500 uM; one replicate. Put shortly:
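Five buffer/ATP imaging cycles were run on Cy3-labelled switching-strand clusters on a modified Illumina MiSeq flow-cell, with NaOH stripping and re-annealing between cycles. In each cycle, clusters annealed to 100 nM quencher-labelled ATP aptamer were imaged in selection buffer, then after 15 min with 500 uM ATP at 22 °C. Per cluster, the fluorescence ratio is summed target-cycle over summed buffer-cycle Cy3 intensity, averaged per switch-domain sequence. Only clusters within 100-1000 RFU were kept.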
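Further: ATP exposure 15 min at 22 °C before imaging.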

Turning to CTCATGTCGA, the switch fluorescence ratio was found to be 1.02.
With CTCCCCGGAG, the switch fluorescence ratio was determined as 1.08.
The value for TAAGTACTGG was 1.32; that for CTAGCGTGGG was 1.01; that for ATCTTTCAGG was 1.
As to TAAACTGGGT, the switch fluorescence ratio amounted to 0.948.
CGGCGCGGTA: the switch fluorescence ratio was 1.14.
Turning to CACGGGGCAG, the switch fluorescence ratio amounted to 1.06.
Consider AGCCCAGTTT, for which the switch fluorescence ratio came to 1.02.
The value for TTGGAAATCT was 1.1.
As for CGGTAGTGCT, the switch fluorescence ratio was 0.966.
CGCCATTAGC: the switch fluorescence ratio came out at 1.05.
The value for AGCGTCCTTG was 0.997; that for GGTTTCCACG was 0.988; that for GTGACGGCGC was 1.03.
With CGTGAGCTGG, the switch fluorescence ratio is 1.01.
With AATATATTTG, the switch fluorescence ratio was 0.97.
As for TTGTCTGAGA, the switch fluorescence ratio was 0.99.
On to TCTCAAGGTT, for which the switch fluorescence ratio amounted to 0.993.
Take ATACGCAGTC: the switch fluorescence ratio was found to be 1.77.
With CCTTCATGTC, the switch fluorescence ratio is 1.18.
In the case of TCGGCTTTCA, the switch fluorescence ratio is 0.995.
ATGTGGGTGG: the switch fluorescence ratio amounted to 1.01.
As for TAGAGTTACT, the switch fluorescence ratio worked out at 1.01.
Take TAAACTTGCG: the switch fluorescence ratio was 0.998.
For the sequence AGGGGATGAC, the switch fluorescence ratio amounted to 0.983.
Regarding AAGCTAATGG, the switch fluorescence ratio was 1.01.
The value for GCTACTGAGT was 1.03; that for GGCTGGCAGG was 1.04.
For TCAAACGGTG, the switch fluorescence ratio is 1.01.
In the case of GATTTGCGCA it was 0.957.
In the case of ACGGCGGCAA it was 0.985; in that of GGTGTAGTGT, 1.03; in that of CGCTCTGGCA, 1.02.
In the case of GTCTTCTAAG, the switch fluorescence ratio worked out at 0.963.
For the sequence TGCTCGTTCT, the switch fluorescence ratio is 0.972.
In the case of GTACTCGGTG, the switch fluorescence ratio is 1.02.
As for TTTACAGCCG, the switch fluorescence ratio is 1.02.
CGAAGGAGGC: the switch fluorescence ratio turned out to be 1.07.
Regarding CCCGTATTGA, the switch fluorescence ratio was 1.2.
TTAGTAATTG: the switch fluorescence ratio is 0.947.
For the sequence TCGAGGTTGG, the switch fluorescence ratio turned out to be 0.973.
Take ATGTTGGTCA: the switch fluorescence ratio was found to be 0.991.
For the sequence AAAAGCGAA, the switch fluorescence ratio came to 1.01.
As to ATTCTTGATA, the switch fluorescence ratio is 1.02.
The value for CCATCGGTA was 1.02; that for GATTGCAGGT was 0.99; that for CTATACAGTC was 0.994.
Regarding TAAGACACTA, the switch fluorescence ratio was 1.08.
Turning to GGCTATTCGC, the switch fluorescence ratio is 1.
In the case of AGATGGGTGA, the switch fluorescence ratio is 1.01.
Regarding AGGGCCCCAT, the switch fluorescence ratio came to 0.97.
Regarding AACGGTTGAC, the switch fluorescence ratio worked out at 1.09.
With CGTGGAGATC, the switch fluorescence ratio amounted to 1.06.
With CGGCAGTGGG, the switch fluorescence ratio was found to be 0.971.
Consider CCAGTGGGAC, for which the switch fluorescence ratio is 1.05.
With TAATTTTCGA, the switch fluorescence ratio was 0.988.
The value for GCGTCATTTG was 0.979; that for CAACTTCAGT was 1.01.
For AAAGGAGCGA, the switch fluorescence ratio amounted to 0.988.
For AGTAGAGATT, the switch fluorescence ratio amounted to 1.02.
CAATTAGTTT: the switch fluorescence ratio turned out to be 0.969.
The value for TATATATGCA was 1.02; that for CAAACAACGA was 1.19.
Regarding ATGTTTGACC, the switch fluorescence ratio was determined as 0.995.
Turning to AGCAAAAAAT, the switch fluorescence ratio was found to be 1.17.
As for TTCCACAGGC, the switch fluorescence ratio came to 1.63.
Regarding CGTCTGGATG, the switch fluorescence ratio worked out at 0.986.
For the sequence CTCGTTCTTA, the switch fluorescence ratio worked out at 1.02.
In the case of TTGGATACCG it was 1; in that of TGCACACGTT, 1.01.
TCAGACCGCA: the switch fluorescence ratio turned out to be 2.31.
In the case of TGCGACCTGA it was 1.1; in that of CCGATATATG, 1.1.
In the case of TAAGCTTCGG, the switch fluorescence ratio stood at 1.06.
For AGAATGACGA, the switch fluorescence ratio turned out to be 0.961.
For CTGGCTAGAT, the switch fluorescence ratio was 0.983.
Regarding ATTTGATAAG, the switch fluorescence ratio was determined as 0.963.
GCAACTGTTA: the switch fluorescence ratio was 1.07.
On to CACTTCAAAA, for which the switch fluorescence ratio came out at 1.
On to CAATAATTTT, for which the switch fluorescence ratio was determined as 1.02.
The value for CAATAATCTG was 1.03; that for TCGTCGACAT was 1.02.
Turning to AAAGCGTAGT, the switch fluorescence ratio was determined as 1.02.
As for GGGGCGCAGA, the switch fluorescence ratio stood at 0.993.
Consider CAAGGGCCAC, for which the switch fluorescence ratio came to 0.983.
In the case of AAGTTAAATT, the switch fluorescence ratio amounted to 0.994.
In the case of ACCCCAGCAT it was 1.36.
With TGAACTCTGG, the switch fluorescence ratio was 0.969.
GACGCTTATA: the switch fluorescence ratio amounted to 4.13.
Turning to AGGATGGAAA, the switch fluorescence ratio stood at 1.01.
With TAGAAATGC, the switch fluorescence ratio is 1.46.
Turning to TAGCAACCA, the switch fluorescence ratio came to 1.
As for CGTAATCTGA, the switch fluorescence ratio turned out to be 1.05.
Take CATGCCACGT: the switch fluorescence ratio was 0.996.
ATGGTTTGCC: the switch fluorescence ratio was found to be 0.986.
Consider TTCAGGTTG, for which the switch fluorescence ratio came to 1.04.
Turning to TAGGGAATTT, the switch fluorescence ratio amounted to 0.999.
Consider GCAACACAAA, for which the switch fluorescence ratio was found to be 0.992.
As to CCTACGACCG, the switch fluorescence ratio is 1.25.
As to GCCGTATACA, the switch fluorescence ratio was determined as 0.965.
Turning to GCACTTGGAA, the switch fluorescence ratio worked out at 1.01.
Take TCACTCTGCG: the switch fluorescence ratio amounted to 1.15.
ATCAGATGTC: the switch fluorescence ratio was determined as 1.18.
GGCACAGTCC: the switch fluorescence ratio was 1.02.
In the case of CTGTGATCCG it was 1.03.
In the case of TGAGGGATAT it was 0.978; in that of AACTGAGATC, 1.03; in that of GCCCCGCGTC, 1.85.
Turning to ACAACCAGC, the switch fluorescence ratio stood at 1.09.
Take TGAGTTTA: the switch fluorescence ratio amounted to 1.
For TTGATGTTG, the switch fluorescence ratio came to 1.01.
In the case of CTGAATCGGT it was 0.983.
As for CAACGTATCC, the switch fluorescence ratio stood at 1.01.
The value for TAACGTGGGG was 0.985.
TTCTTTATTG: the switch fluorescence ratio came out at 0.974.
As for AGCATGGTGA, the switch fluorescence ratio amounted to 1.05.
In the case of TCCATGCAGT it was 1.11; in that of AGCGCTATAG, 1.09; in that of GGGTCGACCT, 1.06.
